# Data taken from PMC5892938.
# Some of the results follow. At the low end of the ranking, values are background and their order means little.
# Biological target: GST-SBP-SLBP (stem-loop binding protein) (UniProt Q14493)
# Test: targeted RNA Bind-n-Seq;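 further: DESeq read counts versus GST-SBP nonspecific binding control pulldown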
# Settings: RBNS binding buffer: 25 mM Tris pH 7.5, 150 mM KCl, 3 mM MgCl2, 0.1% Tween, 0.5 mg/mL BSA, 1 mM DTT; 27 nM protein, 750 pM RNA pool; temperature not stated; high values mean tight binding
row,Sequence,binding signal (log2 fold change)
1,GGUCACGUCUCAAUCAACUCAUCUUCCAGGGAAAUCCCUGGUUAACUCAACAGCUCGCAGUCAAG,-0.114
2,GGUCACGUCUCAAUCAACUCAAUUUCAGGAGUUUACUCCUGUAUAGUCAACAGCUCGCAGUCAAG,0.0899
3,GGUCACGUCUCAAUCAACUCUUACGAGGGGGGGAAAACCCCUUUACCCUCACUCUCAACAGCUCGCAGUCAAG,0.113
4,GGUCACGUCUCAAUCAACUCAUCUUCCAGGGAAAUCCCUGGCUUUUUCAACAGCUCGCAGUCAAG,-0.144
5,GGUCACGUCUCAAUCAACUCAAUUCCCAGGGAAAGCCCUGGCAUUCUCAACAGCUCGCAGUCAAG,0.08
6,GGUCACGUCUCAAUCAACUCCUACGAGGGGGGGAAAACCCCUUUACCCUCAAUAUCAACAGCUCGCAGUCAAG,0.24
7,GGUCACGUCUCAAUCAACUCAUUCCCAGGAGUUUUCUCCUGCAUUUUCAACAGCUCGCAGUCAAG,-0.261
8,GGUCACGUCUCAAUCAACUCUCUCGAGGGGGGGAAAACCCCUUUACCCUCAAUCUCAACAGCUCGCAGUCAAG,-0.295
9,GGUCACGUCUCAAUCAACUCAUCUUCCAGGGAAAUCCCUGGUUAUCUCAACAGCUCGCAGUCAAG,0.0117
10,GGUCACGUCUCAAUCAACUCAAUUCCCAGGGAAACCCCUGGUUUUCUCAACAGCUCGCAGUCAAG,-0.137
11,GGUCACGUCUCAAUCAACUCUACUCCCAGGGAAAACCCUGGCAAUCUCAACAGCUCGCAGUCAAG,0.0103
12,GGUCACGUCUCAAUCAACUCUUCUUCCAGGGAAACCCCUGGCAUUCUCAACAGCUCGCAGUCAAG,-0.0553
13,GGUCACGUCUCAAUCAACUCCAUCGAGGGGGGGAAAACCCCUUUACCCUCCAAUUCAACAGCUCGCAGUCAAG,0.49
14,GGUCACGUCUCAAUCAACUCAACUUCCAGGGAAACCCCUGGCGUAUUCAACAGCUCGCAGUCAAG,0.0823
15,GGUCACGUCUCAAUCAACUCAUCCCCAGGAGUUUUCUCCUGCUUUCUCAACAGCUCGCAGUCAAG,-0.0579
16,GGUCACGUCUCAAUCAACUCAUACGAGGGGGGGAAAACCCCUUUGCCCUCAUCUUCAACAGCUCGCAGUCAAG,-0.363
17,GGUCACGUCUCAAUCAACUCUUUCCCCAGGGAAACCCCUGGCUAUCUCAACAGCUCGCAGUCAAG,0.104
18,GGUCACGUCUCAAUCAACUCCCUGGAGGGGGGGAAAACCCCUUUACCCUCAUCAUCAACAGCUCGCAGUCAAG,-0.375
19,GGUCACGUCUCAAUCAACUCAAUCUCCAGGGAAAUCCCUGGCAAAUUCAACAGCUCGCAGUCAAG,0.278
20,GGUCACGUCUCAAUCAACUCUAUUCCAGGAGUUUUCUCCUGUUAAUUCAACAGCUCGCAGUCAAG,-0.0398
21,GGUCACGUCUCAAUCAACUCUUCAGAGGGGGGGAAAACCCCUUUACCCUCACCGUCAACAGCUCGCAGUCAAG,-0.0645
22,GGUCACGUCUCAAUCAACUCAACUUCAGGAGUUUGCUCCUGUAUUCUCAACAGCUCGCAGUCAAG,-0.0213
23,GGUCACGUCUCAAUCAACUCUACUCCCAGGGAAAUCCCUGGCAAUUUCAACAGCUCGCAGUCAAG,0.085
24,GGUCACGUCUCAAUCAACUCAUCGUCAGGAGUUUACUCCUGCUAAUUCAACAGCUCGCAGUCAAG,-0.124
25,GGUCACGUCUCAAUCAACUCAUCCCCCAGGGAAAUCCCUGGUUUAUUCAACAGCUCGCAGUCAAG,0.0964

row,Sequence,binding signal (log2 fold change)
1,GGUCACGUCUCAAUCAACUCAUUCUCAGGAGUUUCCUCCUGCAAUUUCAACAGCUCGCAGUCAAG,-0.0851
2,GGUCACGUCUCAAUCAACUCCUAAGAGGGGGGGAAAACCCCUUUACCCUCAUCAUCAACAGCUCGCAGUCAAG,0.0605
3,GGUCACGUCUCAAUCAACUCUAUCCCAGGAGUUUCCUCCUGCUAAUUCAACAGCUCGCAGUCAAG,0.0876
4,GGUCACGUCUCAAUCAACUCUAUCUCAGGAGUUUUCUCCUGCAAAUUCAACAGCUCGCAGUCAAG,0.017
5,GGUCACGUCUCAAUCAACUCUCAAGAGGGGGGGAAAACCCCUUUGCCCUCCAAAUCAACAGCUCGCAGUCAAG,0.327
6,GGUCACGUCUCAAUCAACUCAUCAGAGGGGGGGAAAACCCCUUUACCCUCAAUAUCAACAGCUCGCAGUCAAG,-0.0696
7,GGUCACGUCUCAAUCAACUCAUCUCCCAGGGAAAUCCCUGGCAUAUUCAACAGCUCGCAGUCAAG,-0.114
8,GGUCACGUCUCAAUCAACUCUACUUCAGGAGUUUCCUCCUGUUUAUUCAACAGCUCGCAGUCAAG,0.0676
9,GGUCACGUCUCAAUCAACUCAAUUUCAGGAGUUUACUCCUGCAUACUCAACAGCUCGCAGUCAAG,0.0541
10,GGUCACGUCUCAAUCAACUCUUUUCCAGGAGUUUACUCCUGCAUUCUCAACAGCUCGCAGUCAAG,-0.00374
11,GGUCACGUCUCAAUCAACUCAAUCUCAGGAGUUUUCUCCUGCAAACUCAACAGCUCGCAGUCAAG,0.225
12,GGUCACGUCUCAAUCAACUCAUUCUCAGGAGUUUCCUCCUGCUUAGUCAACAGCUCGCAGUCAAG,0.151
13,GGUCACGUCUCAAUCAACUCAUUUCCCAGGGAAAACCCUGGUUUUUUCAACAGCUCGCAGUCAAG,-0.19
14,GGUCACGUCUCAAUCAACUCAUUCCCCAGGGAAAGCCCUGGUAAUCUCAACAGCUCGCAGUCAAG,0.134
15,GGUCACGUCUCAAUCAACUCAUCCCCAGGAGUUUUCUCCUGCUUUUUCAACAGCUCGCAGUCAAG,0.131
16,GGUCACGUCUCAAUCAACUCUAUUCCCAGGGAAAACCCUGGCAUACUCAACAGCUCGCAGUCAAG,0.0666
17,GGUCACGUCUCAAUCAACUCUUUUUCCAGGGAAAUCCCUGGUAUAUUCAACAGCUCGCAGUCAAG,0.0067
18,GGUCACGUCUCAAUCAACUCAUUCCCAGGAGUUUACUCCUGUAUUUUCAACAGCUCGCAGUCAAG,0.0921
19,GGUCACGUCUCAAUCAACUCUAUUCCAGGAGUUUACUCCUGCAUACUCAACAGCUCGCAGUCAAG,-0.125
20,GGUCACGUCUCAAUCAACUCUAUCCCAGGAGUUUCCUCCUGUUUUCUCAACAGCUCGCAGUCAAG,0.237
21,GGUCACGUCUCAAUCAACUCAUUCCCCAGGGAAAACCCUGGUAUACUCAACAGCUCGCAGUCAAG,0.0884
22,GGUCACGUCUCAAUCAACUCCCUAGAGGGGGGGAAAACCCCUUUACCCUCGUAAUCAACAGCUCGCAGUCAAG,-0.29
23,GGUCACGUCUCAAUCAACUCUUUUCCCAGGGAAAUCCCUGGCUUUCUCAACAGCUCGCAGUCAAG,0.0377
24,GGUCACGUCUCAAUCAACUCUUCCUCAGGAGUUUCCUCCUGUAAUCUCAACAGCUCGCAGUCAAG,0.0782
25,GGUCACGUCUCAAUCAACUCAUCUCCCAGGGAAAGCCCUGGUUAACUCAACAGCUCGCAGUCAAG,-0.0832

row,Sequence,binding signal (log2 fold change)
1,GGUCACGUCUCAAUCAACUCUAUAGAGGGGGGGAAAACCCCUUUGCCCUCAACCUCAACAGCUCGCAGUCAAG,-0.0693
2,GGUCACGUCUCAAUCAACUCUUUAGAGGGGGGGAAAACCCCUUUGCCCUCCAUAUCAACAGCUCGCAGUCAAG,-0.12
3,GGUCACGUCUCAAUCAACUCCCAAGAGGGGGGGAAAACCCCUUUGCCCUCCAUGUCAACAGCUCGCAGUCAAG,-0.403
4,GGUCACGUCUCAAUCAACUCUAUCUCCAGGGAAAUCCCUGGUUUUUUCAACAGCUCGCAGUCAAG,0.074
5,GGUCACGUCUCAAUCAACUCAGUUUCCAGGGAAAUCCCUGGUUUAUUCAACAGCUCGCAGUCAAG,0.33
6,GGUCACGUCUCAAUCAACUCUUUCCCAGGAGUUUACUCCUGCAUUCUCAACAGCUCGCAGUCAAG,0.206
7,GGUCACGUCUCAAUCAACUCAUAAGAGGGGGGGAAAACCCCUUUGCCCUCAUACUCAACAGCUCGCAGUCAAG,0.0461
8,GGUCACGUCUCAAUCAACUCUUCUCCCAGGGAAAACCCUGGCAUUCUCAACAGCUCGCAGUCAAG,0.171
9,GGUCACGUCUCAAUCAACUCUUCGGCAGGAGUUUUCUCCUGGAAUUUCAACAGCUCGCAGUCAAG,-0.021
10,GGUCACGUCUCAAUCAACUCUUAGGAGGGGGGGAAAACCCCUUUACCCUCAUUCUCAACAGCUCGCAGUCAAG,-0.223
11,GGUCACGUCUCAAUCAACUCAACUUCAGGAGUUUACUCCUGCUAAUUCAACAGCUCGCAGUCAAG,0.294
12,GGUCACGUCUCAAUCAACUCAUUCCCAGGAGUUUUCUCCUGCAAUUUCAACAGCUCGCAGUCAAG,0.209
13,GGUCACGUCUCAAUCAACUCAUCUUCAGGAGUUUUCUCCUGCUUAUUCAACAGCUCGCAGUCAAG,0.0542
14,GGUCACGUCUCAAUCAACUCAAUCCCAGGAGUUUACUCCUGCAAACUCAACAGCUCGCAGUCAAG,0.251
15,GGUCACGUCUCAAUCAACUCAUCGUCAGGAGUUUCCUCCUGCUUUCUCAACAGCUCGCAGUCAAG,0.0538
16,GGUCACGUCUCAAUCAACUCAACUCCAGGAGUUUUCUCCUGCUAUCUCAACAGCUCGCAGUCAAG,0.28
17,GGUCACGUCUCAAUCAACUCUUUUUCAGGAGUUUACUCCUGUUAUCUCAACAGCUCGCAGUCAAG,0.073
18,GGUCACGUCUCAAUCAACUCAUCGCCAGGAGUUUCCUCCUGCUAAUUCAACAGCUCGCAGUCAAG,-0.122
19,GGUCACGUCUCAAUCAACUCAUUCCCCAGGGAAAACCCUGGCUUACUCAACAGCUCGCAGUCAAG,0.0164
20,GGUCACGUCUCAAUCAACUCUAUUUCCAGGGAAAGCCCUGGCGUAUUCAACAGCUCGCAGUCAAG,-0.253
21,GGUCACGUCUCAAUCAACUCUCUCGAGGGGGGGAAAACCCCUUUGCCCUCAUCAUCAACAGCUCGCAGUCAAG,-0.145
22,GGUCACGUCUCAAUCAACUCAUCGUCAGGAGUUUUCUCCUGCAAAUUCAACAGCUCGCAGUCAAG,-0.0376
23,GGUCACGUCUCAAUCAACUCUAGUCCCAGGGAAAGCCCUGGCUUUUUCAACAGCUCGCAGUCAAG,0.0629
24,GGUCACGUCUCAAUCAACUCAUCUCCCAGGGAAAGCCCUGGCAUACUCAACAGCUCGCAGUCAAG,0.113
